Data: PubChem BioAssay AID1468 (National Center for Advancing Translational Sciences (NCATS), 2008)
Among all 280,000 compounds or so, about 1,100 (0.39%) were called active. This list was built around the results that the source calls inconclusive (neither active nor inactive); the mix of calls is not that of the screen. The call rests on the fitted dose curve; in most records, active means well fitted inhibition curve with a large enough effect; inconclusive means small, poorly fitted or top-dose-only effect, or effect the other way; inactive means flat fitted curve, though single readings scatter. No potency is given beside an inconclusive call; the fits are too rough.

molecular target: Microtubule-associated protein tau (Homo sapiens) (UniProt P10636); assay: qHTS for Inhibitors of Tau Fibril Formation, Fluorescence Polarization; details: K18 P301L tau heparin fibrillization, Alexa594 FP, 6 h; series mostly up to 57.7 µM; activity, negative = inhibition: at the top concentration; further: nearly all actives have a fitted effect of over 55% in size
Chain of UniProt P10636 (P10636 whole entry, looked up): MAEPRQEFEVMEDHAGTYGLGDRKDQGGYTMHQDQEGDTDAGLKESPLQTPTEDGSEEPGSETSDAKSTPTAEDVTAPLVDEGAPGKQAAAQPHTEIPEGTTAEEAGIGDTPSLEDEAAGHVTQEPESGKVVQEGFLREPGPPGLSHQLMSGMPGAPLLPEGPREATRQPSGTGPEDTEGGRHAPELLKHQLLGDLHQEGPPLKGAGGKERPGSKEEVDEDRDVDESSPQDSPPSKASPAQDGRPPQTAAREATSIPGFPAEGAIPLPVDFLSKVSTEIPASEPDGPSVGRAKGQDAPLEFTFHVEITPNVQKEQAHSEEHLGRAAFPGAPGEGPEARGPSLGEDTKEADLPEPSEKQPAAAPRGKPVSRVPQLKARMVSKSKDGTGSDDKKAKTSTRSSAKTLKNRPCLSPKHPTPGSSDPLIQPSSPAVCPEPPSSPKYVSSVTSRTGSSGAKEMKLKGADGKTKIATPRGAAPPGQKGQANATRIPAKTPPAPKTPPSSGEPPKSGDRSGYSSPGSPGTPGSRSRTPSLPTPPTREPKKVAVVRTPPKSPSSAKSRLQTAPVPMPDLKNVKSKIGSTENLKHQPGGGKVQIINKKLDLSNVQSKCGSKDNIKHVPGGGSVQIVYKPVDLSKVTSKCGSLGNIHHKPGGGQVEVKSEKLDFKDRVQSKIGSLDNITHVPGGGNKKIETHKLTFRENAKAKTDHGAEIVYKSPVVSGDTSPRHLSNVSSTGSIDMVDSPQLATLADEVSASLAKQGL
Summary of the method: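 Compound effects on tau fibrillization are measured by Alexa 594 fluorescence polarization (ex 555, em 632 nm). K18 P301L tau is used at 15 uM with 0.24 uM labeled tracer, and 20 uM heparin induces aggregation over 6 hr at 37 C.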
On the % scale 0 is the no-effect control and ±100 the full control effect; potency means the concentration at half of the fitted maximal effect; tags describe the fitted curve by direction and shape.

Structure (SMILES)	Potency	activity, negative = inhibition
Cc1ccc(CN(CC(=O)N/N=C/c2ccccc2[N+](=O)[O-])S(=O)(=O)c2ccc(C)cc2)cc1	inconclusive [activator, full curve]	–
O=C1NC(c2ccccc2)=C(c2ccc3ccccc3n2)C(c2ccccc2)N1 (stereo unspecified)	inconclusive [inhibitor, single point]	–
O=C(CCN1CCN(C(=O)c2ccco2)CC1)Nc1ccc(F)cc1	inconclusive [inhibitor, single point]	–
O=C(Nc1cccc(C(F)(F)F)c1)c1cc(-c2ccc(Cl)s2)nc2ccccc12	inconclusive [inhibitor, partial curve]	–
Nc1c(C(=O)NCCc2ccccc2)nnn1Cc1ccc(Br)cc1F	inconclusive [inhibitor, single point]	–
CCOc1ccc(NC2SC(=O)N(Cc3ccccc3)C2=O)cc1 (stereo unspecified)	–	inactive: 15.4%
O=C(O)c1ccc(Cn2cnc3cccnc32)cc1	–	inactive: -5.11%
CN(C)CCOc1nc(-c2ccccc2)nc2c1oc1ccccc12	inconclusive [inhibitor, single point]	–
COc1cccc(C2NC(=S)NC3=C2CCc2ccccc23)c1 (stereo unspecified)	inconclusive [inhibitor, single point]	–
COc1cc(OC)cc(C(=O)N[C@H](C(=O)Nc2cc(C)cc(C)c2)C(C)C)c1	inconclusive [inhibitor, single point]	–
CC1CN(C(=O)CCC(=O)NCc2cccc(Cl)c2)c2ccccc2S1 (stereo unspecified)	–	inactive: -5.72%
N#CC1=C(N)Oc2cc(O)c(C=Nc3ccccc3)cc2C1c1ccccc1 (stereo unspecified)	inconclusive [inhibitor, single point]	–
CCc1nc(-c2cc(S(=O)(=O)N3CCN(c4ccc(OC)cc4)CC3)ccc2OC)no1	inconclusive [inhibitor, partial curve]	–
CC(C)CCOc1ccc(C2N=C(N)Nc3nc4ccccc4n32)cc1 (stereo unspecified)	–	inactive: 9%
O=S(=O)(NCCc1csc2nc(-c3ccccc3)nn12)c1cccs1	inconclusive [inhibitor, partial curve, poor fit]	–
Cc1ccc(S(=O)(=O)N2CCCCC2C(=O)Nc2nncs2)cc1 (stereo unspecified)	inconclusive [inhibitor, partial curve, poor fit]	–
Cc1c(Cl)cccc1NC(=S)N1CCN(c2ccccn2)CC1	inconclusive [inhibitor, single point]	–
CC1(C)c2ccccc2N2CC(=O)NC21/C=C/c1ccco1 (stereo unspecified)	inconclusive [inhibitor, single point]	–
CCOc1ccc(NC(=S)Nc2cc(-c3ccccc3)[nH]n2)cc1	inconclusive [inhibitor, single point]	–
CC1(C)CC(=O)C(N=Nc2cc(S(=O)(=O)N3CCOCC3)ccc2Cl)=C(O)C1	–	inactive: -7.62%
COc1ccc(N(CC(=O)NC(C)c2ccccc2)S(=O)(=O)c2c(C)nn(C)c2C)cc1 (stereo unspecified)	–	inactive: -4.77%
COc1ccc(NC(=O)c2nn(C)c3c2CS(=O)(=O)c2ccccc2-3)cc1Cl	inconclusive [inhibitor, single point]	–

Structure (SMILES)	Potency	activity, negative = inhibition
COc1ccc2[nH]c(C)c(CCNC(=S)Nc3ccc(C)cc3)c2c1	inconclusive [activator, partial curve]	–
CC(C)Nc1ccc(-c2nc(-c3ccncc3)no2)cc1[N+](=O)[O-]	–	inactive: -0.778%
CC(=O)N(c1ccccc1)C(C)c1nc(C#N)c(C#N)nc1C (stereo unspecified)	inconclusive [inhibitor, full curve, poor fit]	–
Cc1ccc(C(=O)Oc2oc(-c3ccco3)nc2C=Nc2ccccc2)cc1	inconclusive [inhibitor, single point]	–
CCN(C(=O)CN1CCN(c2ccc(O)cc2)CC1)c1c(N)n(Cc2ccccc2)c(=O)[nH]c1=O	inconclusive [inhibitor, single point]	–
Cc1nc(CCN2C(=O)c3ccccc3C2=O)n[nH]1	inconclusive [inhibitor, single point]	–
Cc1ccc(CNC(=O)CSc2nc3c(sc4ccccc43)c(=O)n2CCCN2CCCC2)cc1	inconclusive [inhibitor, partial curve]	–
C/C(=N\N=C(c1ccccc1)c1ccccc1)c1cccs1	–	inactive: -13.9%
CCOC(=O)c1sc(=S)n(C)c1NC(=O)c1ccc(F)cc1	inconclusive [inhibitor, full curve, poor fit]	–
COc1nc(-c2ccccc2)ccc1-c1noc(-c2ccccc2Br)n1	inconclusive [inhibitor, partial curve]	–
CC1(C)CN(c2ccc(Br)cc2Br)C1=O	–	inactive: 1.3%
CC(C)[C@H](NC(=O)c1ccco1)C(=O)OCC(=O)c1ccc2c(c1)NC(=O)CO2	–	inactive: 4.92%
CCOc1ccc(C(=O)O)cn1	inconclusive [inhibitor, single point]	–
CS(=O)(=O)N1CCC(C(=O)Nc2ccccc2)CC1	inconclusive [inhibitor, partial curve]	–
N#C/C(C(=O)NCc1ccco1)=C1/SC(Cc2ccc(F)cc2)C(=O)N1c1ccccc1 (stereo unspecified)	inconclusive [inhibitor, full curve, poor fit]	–
CCOC(=O)c1ccc(NS(=O)(=O)c2ccc(SC)cc2)cc1	inconclusive [inhibitor, partial curve, poor fit]	–
COc1ccc(N2CCN(S(=O)(=O)CCNC(=O)COc3ccccc3F)CC2)cc1	–	inactive: 10.1%
C=CCn1c(N/N=C/c2ccc(O)cc2)nc2ccccc2c1=O	inconclusive [activator, partial curve]	–
Clc1ccc(SCc2cn3ccccc3n2)cc1	–	inactive: -0.167%
NNC(=O)c1ccc(CSc2n[nH]c(=O)[nH]c2=O)cc1	inconclusive [inhibitor, single point]	–
COc1ccc(C(=O)N2CCN(C(=O)Cc3ccccc3)CC2)cc1OC	–	inactive: 10.2%
Cc1cccc(OCC(O)Cn2c(=N)n(CCN3CCCCC3)c3ccccc32)c1 (stereo unspecified)	inconclusive [inhibitor, single point]	–

Structure (SMILES)	Potency	activity, negative = inhibition
Cc1[nH]nc2c1C(c1ccc(-c3ccccc3C#N)o1)C(C#N)=C(N)O2 (stereo unspecified)	–	inactive: -0.762%
CCC(C)Nc1oc(-c2ccc(COc3ccc(Cl)cc3)o2)nc1C#N (stereo unspecified)	inconclusive [activator, partial curve, poor fit]	–
CC(C)n1c(/N=C/c2c[nH]c3ccccc23)nc2ccccc21	inconclusive [inhibitor, single point]	–
S=C(Nc1cccc(Cl)c1Cl)Nn1cnnc1	inconclusive [inhibitor, partial curve]	–
Cc1oc(-c2cccs2)nc1CS(=O)CC(=O)NC1CCCCCC1 (stereo unspecified)	–	inactive: -6.88%
COc1ccc(CCNc2oc(-c3cccc4ccccc34)nc2P(=O)(OC)OC)cc1OC	inconclusive [activator, partial curve]	–
COC(=O)c1c(-c2cccs2)csc1NC(=O)c1ccc(OC)c(OC)c1	inconclusive [inhibitor, partial curve, poor fit]	–
COc1ccccc1/C=C/C(=O)OCC(=O)NNC(=O)c1ccccc1	inconclusive [inhibitor, single point]	–
COc1cc(/C=C/c2nc(C#N)c(NCCc3ccccc3)o2)cc(OC)c1OC	inconclusive [activator, partial curve]	–
O=C(/C=C/c1ccco1)N(Cc1ccc(Cl)cc1)C1CCS(=O)(=O)C1 (stereo unspecified)	–	inactive: -8.64%
Cc1ccc(C)c(NC(=O)c2nn(C)c3c2CS(=O)(=O)c2ccccc2-3)c1	inconclusive [inhibitor, single point]	–
COc1ccc(/C=N\NS(=O)(=O)c2ccc(Cl)cc2)cc1COc1ccccc1[N+](=O)[O-]	inconclusive [inhibitor, partial curve, poor fit]	–
CCOC(=O)N1CCc2c(sc3c2c(=O)n(CCc2ccccc2)c(=O)n3CC(=O)Nc2cccc(C)c2)C1	inconclusive [inhibitor, partial curve]	–
CCOC(=O)C1(CC2CCCCO2)CCN(C(=O)Nc2ccc(C(=O)OC)cc2)CC1 (stereo unspecified)	inconclusive [inhibitor, single point]	–
CCc1ccc2nc(SCC(=O)Nc3ccccc3N3CCOCC3)c(C#N)cc2c1	inconclusive [inhibitor, full curve, poor fit]	–
CCc1ccc2c(COC(=O)c3n[nH]c4ccccc34)cc(=O)oc2c1	inconclusive [inhibitor, single point]	–
COc1cc(NC(=O)N2CCC3(CC2)Nc2cc(F)ccc2-n2cccc23)cc(OC)c1OC	inconclusive [activator, partial curve]	–
Cc1ccc2c(c1)-c1[nH]c(=S)ncc1CS2	inconclusive [inhibitor, single point]	–
CCOc1ccccc1NC(=S)Nc1ccc(S(N)(=O)=O)cc1	–	inactive: -7.71%
N#C/C(=C/c1cn(Cc2ccccc2Cl)c2ccccc12)C(=O)Nc1cccc(Cl)c1	inconclusive [inhibitor, partial curve]	–
O=C(CSc1nc(-c2ccc(F)cc2)[nH]c1-c1ccccc1)Nc1ccccc1	inconclusive [inhibitor, single point]	–
Cc1ccc(C)c(NC(=S)c2ccccn2)c1	inconclusive [inhibitor, single point]	–
